The list shows a part of the results. Repeats are few or missing, and single values can be far off.
The compounds below were run on WM451Lu (assay: cell count relative to DMSO control; melanoma cells; higher = more viable cells). Settings: library dose: standard library concentration; 72 h.
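Further: cells treated in 1,536-well plates, then fixed and DAPI-stained, with nuclei counted from automated high-throughput microscope images.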

| Structure (SMILES) | cell count |
| --- | --- |
| C[C@]1(O)C[C@@H](c2nc(-c3ccc4ccc(-c5ccccc5)nc4c3)c3c(N)nccn32)C1 + c1cc(-c2cnn3cc(-c4ccc(OCCN5CCCCC5)cc4)cnc23)ccn1 [Dorsomorphin] (first compound 2 µM, partner dose 2 µM) | 73.2% |
| COc1cc([C@@H]2c3cc4c(cc3[C@@H](O[C@@H]3O[C@@H]5CO[C@@H](C)O[C@H]5[C@H](O)[C@H]3O)[C@H]3COC(=O)[C@H]23)OCO4)cc(OC)c1O [etoposide] + CCc1ccc(CCOc2ccc(CC3SC(=O)NC3=O)cc2)nc1 [pioglitazone] (first compound 0.1 µM, partner dose 10 µM) | 92.4% |
| CCN(CC)CCNC(=O)c1c(C)[nH]c(/C=C2\C(=O)Nc3ccc(F)cc32)c1C [sunitinib] + CCc1ccc(CCOc2ccc(CC3SC(=O)NC3=O)cc2)nc1 [pioglitazone] (first compound 2 µM, partner dose 10 µM) | 86.4% |
| CCN(CC)CCNC(=O)c1c(C)[nH]c(/C=C2\C(=O)Nc3ccc(F)cc32)c1C [sunitinib] + O=C1NC(=O)/C(=C/c2ccc(-c3ccc(F)cc3O)o2)S1 [AS252424] (first compound 2 µM, partner dose 5 µM) | 70.5% |
| CCN(CC)CCNC(=O)c1c(C)[nH]c(/C=C2\C(=O)Nc3ccc(F)cc32)c1C [sunitinib] + COc1ccc2c(c1)CCC1C2CCC2(C)C(NCCCCCCN3C(=O)C=CC3=O)CCC12 [U73122] (first compound 2 µM, partner dose 2 µM) | 76.9% |
